# Test results published in PubChem BioAssay AID652154 (Broad Institute, 2013).
# Out of some 360,000 compounds screened, about 4,200 (1.2%) were called active. The shares of active, inactive and inconclusive entries below differ from those in the screen.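 How the source made its calls: active means mean replicate inhibition at least 60% with every replicate also reaching 60%; inconclusive means only one of the two criteria is met; inactive means mean below 60% and not all replicates reaching 60%.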
# Assay: inhibitors of PAX8-driven TPO luciferase reporter, primary screen, RMG-I cells, single concentration (AID 652154);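 further: luciferase light reporting Pax8 driven TPO promoter activity; plate controls were median of neutral control wells for no effect and mitoxantrone controls for full effect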
# Conditions: SteadyGlo, 24 h, at 12.6 µM, hits give high values
row,SMILES,inhibition
1,COc1cc(C2c3cc4c(cc3OC(NCc3ccccc3)C2C)OCO4)cc(OC)c1OC (stereo unspecified),inconclusive: 60.2%
2,CCC(=O)N(C)C[C@H]1Oc2ncc(C#CC3(O)CCCC3)cc2C(=O)N([C@H](C)CO)C[C@@H]1C,inactive: -9.28%
3,COc1cc(OC)c2c(-c3cccc(-c4ccc(N(C)C)cc4)c3)cc(=O)oc2c1,active: 76.9%
4,CCOC(=O)c1c(C)nc2ccccc2c1-c1ccccc1,inactive: 17.2%
5,COc1cccc(-c2ccc3c(c2)[C@@H]2[C@@H](CCN2S(=O)(=O)c2ccc(F)cc2)[C@H](CO)N3C)c1,inconclusive: 71.3%
6,Cc1cccc(-c2ccc([C@H]3[C@H](CO)N4CCCCN(S(=O)(=O)c5cccc(C)c5)C[C@@H]34)cc2)c1,inconclusive: 64.1%
7,COc1cccc(C2CC(OCCF)=CC(=O)O2)c1 (stereo unspecified),inconclusive: 62%
8,O=C(COc1ccc(Cl)cc1)Nc1nc(-c2ccc(S(=O)(=O)N3CCOCC3)cc2)cs1,inactive: 13.5%
9,COc1cccc(-c2ccc3c(c2)[C@H]2[C@H](CCN2S(=O)(=O)c2ccccc2OC)[C@@H](CO)N3C)c1,active: 91.8%
10,C[C@H](CO)N1C[C@H](C)[C@H](CN(C)Cc2ccc(-c3ccccc3)cc2)Oc2ccc(NC(=O)CCCCCC(=O)Nc3ccccc3N)cc2CC1=O,inconclusive: 63.1%
11,CCOC(=O)C(NC(=O)Nc1ccc(Cl)cn1)(Oc1ccc(F)cc1)C(F)(F)F (stereo unspecified),inconclusive: 63.8%
12,COc1ccccc1CN1C[C@@H]2N[C@H](C1)C2c1ccc(-c2ccc(C#N)cc2)cc1 (stereo partly specified),inconclusive: 62.1%
13,Cc1c(Cl)cccc1N1CC(C)(C)C1=O,inactive: 0.415%
14,COc1ccccc1S(=O)(=O)N1CC[C@@H]2[C@@H](CO)N(C)c3ccc(-c4ccccc4)cc3[C@@H]21,inconclusive: 61.9%
15,CCN1C(=O)CC2CCCC1C2 (stereo unspecified),inactive: 7.15%
16,CC(C)(C)OC(=O)NCCCCCNC(=O)c1[nH]cnc1C(=O)Nc1cc(Br)ccc1F,inconclusive: 61.1%
17,O=C1[C@@H]2Cc3c([nH]c4ccccc34)C(c3cccc([N+](=O)[O-])c3)N2C(=O)CN1C1CCN(Cc2ccccc2)CC1 (stereo partly specified),inconclusive: 60.9%
18,O=C(C[C@H]1CC[C@@H]2[C@H](COC[C@H](O)CN2Cc2nccs2)O1)NCc1ccc(Cl)cc1,inactive: 6.3%
19,COc1ccc(C(=O)/C=C/C(=O)N(CC(=O)NC2CCCCC2)Cc2ccccc2)c(O)c1,inconclusive: 60.8%
20,CCOC(=O)N1C(=O)[C@@](c2ccc(Cl)cc2)(C(C)C)N1C(=O)OCC,active: 68.9%
21,C[C@@H]1CN([C@H](C)CO)S(=O)(=O)c2ccc(C#CCC3CCCC3)cc2O[C@@H]1CN(C)C(=O)CC1CC1,inconclusive: 59.4%
22,Cc1oc(-c2ccc(Cl)cc2)nc1CS(=O)CC(=O)NCCCN1CCN(Cc2ccccc2)CC1 (stereo unspecified),inconclusive: 63.3%
23,Cc1ccc(-c2nc3c(Br)cc(C)cn3c2Cc2cccc(Cl)c2)cc1,inactive: -5.03%
24,C[C@@H]1CN([C@@H](C)CO)C(=O)c2cc(NS(=O)(=O)c3ccccc3)ccc2O[C@@H](C)CCCCO[C@H]1CN(C)Cc1ccc(C(F)(F)F)cc1,inconclusive: 60%

row,SMILES,inhibition
1,C[C@H](CO)N1C[C@H](C)[C@H](CN(C)S(=O)(=O)c2cccs2)OCCCC[C@H](C)Oc2ccc(NS(=O)(=O)c3ccc(Cl)cc3)cc2C1=O,inconclusive: 67.1%
2,COc1ccccc1-c1ccc2c(c1)[C@@H]1[C@@H](CCN1C(=O)c1ccc3c(c1)OCO3)[C@H](CO)N2,inconclusive: 62.7%
3,Cc1noc(C)c1S(=O)(=O)Nc1ccc2c(c1)C(=O)N([C@H](C)CO)C[C@@H](C)[C@H](CN(C)Cc1ccc(C(F)(F)F)cc1)OCCCC[C@H](C)O2,active: 71.9%
4,CC(NC1=CC(=O)c2cccnc2C1=O)C(O)c1ccccc1 (stereo unspecified),inconclusive: 60.8%
5,CCNC(=O)C[C@H]1CC[C@H]2[C@@H](COC[C@@H](O)CN2C(=O)C2CCOCC2)O1,inactive: -13.1%
6,COc1cccc(CN2C[C@@H]3N[C@H](C2)C3c2ccc(-c3ccccc3OC)cc2)c1 (stereo partly specified),inconclusive: 67.1%
7,N=C(N)c1ccc(N)cc1,inactive: 3.92%
8,O=C(c1ccncc1)N1C[C@@H]2[C@H](c3ccccc31)[C@@H](CO)N2C(=O)c1ccccc1F,inactive: 3.44%
9,Cc1noc(C)c1S(=O)(=O)Nc1ccc2c(c1)C(=O)N([C@H](C)CO)C[C@@H](C)[C@H](CN(C)C(=O)Nc1cccc3ccccc13)OCCCC[C@@H](C)O2,inconclusive: 62%
10,COc1cccc(-c2sc3ccccc3c2-c2ccc(OCCN(C)C)cc2)c1,inconclusive: 61.8%
11,CN1c2ccc(-c3ccc(C#N)cc3)cc2[C@H]2[C@H](CCN2S(=O)(=O)c2cccc(F)c2)[C@H]1CO,inconclusive: 60.2%
12,COc1ccc(C(=O)Cn2nc(CNc3ccc(Br)cc3)[n+]3c2CCCCC3)cc1,inconclusive: 62.3%
13,COc1ccc(C2C(C#N)=C(N)N(c3sc4c(c3C#N)CCCC4)C3=C2C(=O)CC(C)(C)C3)cc1OC (stereo unspecified),inconclusive: 60.7%
14,CCOc1ccc(/C=N/NC(=O)c2cc(-c3ccco3)nc3ccccc23)cc1,inactive: 11.2%
15,CCCCCC(CC(=O)NO)C(=O)NC(C(=O)N1CCCC1CO)C(C)C (stereo unspecified),active: 90.1%
16,COc1cc(/C=N/NC(=O)c2ccc(COc3cc(C)ccc3C(C)C)cc2)cc(OC)c1O,inconclusive: 62.1%
17,COc1ccccc1NC(=O)c1cc2cc(Br)ccc2cc1O,inconclusive: 63.7%
18,O=C1c2ccccc2C(=O)N1CCCCN(C(=O)c1cc([N+](=O)[O-])cc([N+](=O)[O-])c1)c1ccc(Cl)cc1,active: 82.7%
19,C[C@@H]1CN([C@@H](C)CO)C(=O)c2cc(NC(=O)Cc3ccccc3)ccc2O[C@@H]1CN(C)C(=O)Nc1cccc2ccccc12,inconclusive: 61.5%
20,CCn1c(COc2ccc3c(c2)OCO3)nnc1SCC(=O)c1ccc(Cl)cc1,inconclusive: 61.9%
21,C[C@@H]1CN([C@H](C)CO)C(=O)c2cc(NC(=O)Nc3ccc(C(F)(F)F)cc3)ccc2O[C@@H](C)CCCCO[C@H]1CN(C)Cc1ccc(Cl)c(Cl)c1,active: 91.2%
22,O=[N+]([O-])c1ccc(Sc2cccc[n+]2[O-])c2nonc12,active: 102%
23,Cn1nnnc1Sc1ncnc2scc(-c3cccc(Br)c3)c12,active: 90.7%
24,CCN1CCN(C(c2ccc(C(F)(F)F)cc2)c2ccc3cccnc3c2O)CC1 (stereo unspecified),inconclusive: 60.8%

row,SMILES,inhibition
1,O=C(Cc1cccc(NC(=O)C2CCCN(C(=O)C3CCCCC3)C2)c1)Nc1cccc(C(=O)N2CCOCC2)c1 (stereo unspecified),inactive: -6.95%
2,CCOc1ccc(NC2=C(OC)C(=O)c3ccccc3C2=O)cc1,inactive: -29.3%
3,COc1ccc(C(=O)C2CC2c2ccc3c(c2)OCO3)cc1 (stereo unspecified),inactive: -13.6%
4,COc1ccc(Nc2ccc3c(c2)=NC2(CCCCC2)[N+]=3[O-])cc1,active: 75.2%
5,O=C(NC1=C(NC2CCS(=O)(=O)C2)C(=O)c2ccccc2C1=O)c1ccccc1 (stereo unspecified),active: 95.6%
6,CC1(c2ccc(NC(=O)c3ccccc3F)cc2)CC1(Cl)Cl (stereo unspecified),inactive: -150%
7,C[C@@H]1CN([C@H](C)CO)C(=O)Cc2cc(NS(=O)(=O)c3ccc(F)cc3)ccc2O[C@@H]1CN(C)Cc1ccc(-c2ccccc2)cc1,inconclusive: 60.6%
8,CNC(=O)c1ccsc1NC(=O)CCS(=O)(=O)c1ccc(Cl)cc1,inconclusive: 61.7%
9,Cc1ccc(S(=O)(=O)N[C@@H]2C=C[C@@H](CC(=O)N3CCC(Cc4ccccc4)CC3)O[C@@H]2CO)cc1,active: 89.6%
10,CN1C(=O)c2cc(NC(=O)c3cccc(F)c3)ccc2OC[C@H]2O[C@H](CC(=O)NCc3ccccc3)CC[C@H]21,inconclusive: 64.6%
11,O=C(c1ccc(F)cc1)N1C[C@@H]2N[C@H](C1)C2c1ccc(-c2cncnc2)cc1 (stereo partly specified),inactive: 3.76%
12,Cc1cc(Nc2ccc(C)c(C)c2)c2ccccc2n1,inactive: -12.3%
13,CCNC(=O)C[C@H]1CC[C@H]2[C@@H](COC[C@@H](O)CN2S(=O)(=O)c2ccc(Oc3ccccc3)cc2)O1,inactive: 13.2%
14,Cc1cc(C(=O)Nc2cccc3c2O[C@H](CN(C)Cc2ccc(-c4ccccc4)cc2)[C@@H](C)CN([C@@H](C)CO)C3=O)n(C)n1,inconclusive: 60.8%
15,CC(C)=CCC/C(C)=C/CNC(=O)C[C@H]1C[C@H](C(=O)N2CCOCC2)[C@@]2(CCC3CCCC3)c3[nH]c4cc(CCC(=O)N(C)C)ccc4c3CCN2C1=O,inconclusive: 61.1%
16,CCC(=O)Nc1cccc(C(=O)/C=C/c2ccc(F)cc2)c1,inconclusive: 65.9%
17,OC[C@@H]1CN(Cc2ccc(-c3ccccc3)cc2)C[C@H](n2cnc3c(NCc4ccco4)ncnc32)O1,inconclusive: 60.7%
18,CC(C)C[C@H]1CNC(=S)N1CC1CCCN1C[C@H](Cc1ccc(O)cc1)N1C[C@H](Cc2ccccc2)N(CC2CCCCC2)C1=S (stereo partly specified),inconclusive: 66.8%
19,Cc1cnc(NC(=O)c2ccc3c(c2)OCCO3)s1,active: 98.9%
20,Cc1ccc(S(=O)(=O)NCCNC(=O)c2cc(OCC(F)(F)F)ccc2OCC(F)(F)F)cc1,inactive: 21.6%
21,O=C(c1ccccn1)N1C[C@@H]2N[C@H](C1)C2c1ccc(-c2ccccc2F)cc1 (stereo partly specified),inconclusive: 60.8%
22,C[C@H](CO)N1C[C@H](C)[C@H](CN(C)Cc2ccc(F)cc2)OCc2ccccc2-c2ccccc2C1=O,inactive: -8.13%
23,C[C@H]1CN([C@@H](C)CO)S(=O)(=O)c2ccc(/C=C/c3ccccc3)cc2O[C@H]1CN(C)C(=O)Nc1cccc(F)c1,inconclusive: 56.1%
